Some of the results follow.
These sequences were tested against T1, OsWOX13 (Oryza sativa, UniProt Q5QMM3 1-267) (assay: protein-binding microarray (RPBM); PBS, 2% BSA, 51.3 ng/ul salmon testes DNA, 50 uM zinc acetate, 200 nM TF, 25 C, 1 h; high values mean tight binding). Details: protein: recombinant; tags: N-terminal polyhistidine and DsRed monomer fusion (pET32a); label: CyDye5-dUTP incorporated in the synthesized complementary strand; 3' TTTTT single-stranded linker to array surface; dsDNA, one strand shown.
T1 sequence: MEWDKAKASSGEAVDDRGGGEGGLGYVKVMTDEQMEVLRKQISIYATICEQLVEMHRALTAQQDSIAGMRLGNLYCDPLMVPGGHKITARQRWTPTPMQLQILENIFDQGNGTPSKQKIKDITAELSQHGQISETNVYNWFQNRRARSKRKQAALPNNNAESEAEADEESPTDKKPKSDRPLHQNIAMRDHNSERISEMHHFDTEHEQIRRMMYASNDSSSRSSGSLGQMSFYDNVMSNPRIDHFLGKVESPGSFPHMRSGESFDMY
Method in brief: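 Transcription factors, each fused N-terminally to a polyhistidine tag and DsRed, were expressed in E. coli BL21-CodonPlus and purified on Ni–NTA. A custom Agilent array was made double-stranded by primer extension with Cy5-dUTP and blocked with 2% BSA. It was incubated with 200 nM protein in PBS, 2% BSA, salmon testes DNA and 50 µM zinc acetate at 25 °C for 1 h, then washed. The binding signal is per-feature fluorescence intensity (arbitrary units) read on an Axon 4000B scanner.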

| Sequence | binding signal |
| --- | --- |
| CACTAAGTACTGTAATTAATTATCACCACCATCAAATCATCGGAGTCACCTAGTGCAG | 17300 fluorescence intensity (a.u.) |
| GTGGAAATCATTTCCATATCAATTAGCCAAACAGGGCCTGCGGAGTCACCTAGTGCAG | 17100 fluorescence intensity (a.u.) |
| ATTATAATTAACTCGGCAATTTGGTTCGACGACGTGATGACGGAGTCACCTAGTGCAG | 23200 fluorescence intensity (a.u.) |
| GTCTTGTATTCAAATTTATTATAATTTAGCCGTAACAAAACGGAGTCACCTAGTGCAG | 4850 fluorescence intensity (a.u.) |
| ATTGATCAGTGATCTAGTAACTGACATTTCTATTCAATATCGGAGTCACCTAGTGCAG | 3840 fluorescence intensity (a.u.) |
| AATTTGAATTTTGTTAAGTTAAATTTGATGAACTGGGGCCCGGAGTCACCTAGTGCAG | 5490 fluorescence intensity (a.u.) |
| GTTCGGTAGATTAGCGTGTCATTAGTGTGCTAATTGGAGTCGGAGTCACCTAGTGCAG | 9880 fluorescence intensity (a.u.) |
| AGAATTATGATGAAAATGATTGAATCGCTCAATTTCGGAACGGAGTCACCTAGTGCAG | 24400 fluorescence intensity (a.u.) |
| TAAACTCGTCTTATCCGCATGATTGTTGACTATAGTATGTCGGAGTCACCTAGTGCAG | 3880 fluorescence intensity (a.u.) |
| CATATGTACAAATTAAATTTGTTCTACCCATTGCAACACACGGAGTCACCTAGTGCAG | 10300 fluorescence intensity (a.u.) |
| AGATTGACAGACACATTTGGAAGTGTTTCCCTGGCCTCACCGGAGTCACCTAGTGCAG | 39200 fluorescence intensity (a.u.) |
| TTCGCACAATCATCAATTTAAGACCTCAAGTTTACAGAAACGGAGTCACCTAGTGCAG | 5220 fluorescence intensity (a.u.) |
| GGTCGATGATGATGATGACGACGACGAGAGGAGGAGAGATCGGAGTCACCTAGTGCAG | 3300 fluorescence intensity (a.u.) |
| GGATTAAATTATCAAATAGATTTGGCTGCCATGATGGCACCGGAGTCACCTAGTGCAG | 42600 fluorescence intensity (a.u.) |
| TTCTATAATGCAATTCAATTGATTATAAAGCAACTGAAAACGGAGTCACCTAGTGCAG | 5080 fluorescence intensity (a.u.) |
| AGTGATAGTAACATTGTTTACACAAATTACATATCTATGTCGGAGTCACCTAGTGCAG | 3500 fluorescence intensity (a.u.) |
| CTAAATTAATCCATATACGATTTACTGTATTTTCCTCTCACGGAGTCACCTAGTGCAG | 18000 fluorescence intensity (a.u.) |
| GCCTAATTAAAGCCCACATACTGAACTGGGCCGGCCCACTCGGAGTCACCTAGTGCAG | 3560 fluorescence intensity (a.u.) |
| TAGTTTTGTAAATGATTGAAATTTTCTAGTGTTAAATAGGCGGAGTCACCTAGTGCAG | 34800 fluorescence intensity (a.u.) |
| ACGTTCAAATTGCTCTAATCAGACGAAAACTTAATCATGTCGGAGTCACCTAGTGCAG | 7310 fluorescence intensity (a.u.) |
| TTGCCAAATTTTGATATGATATCTTATGTATTTATCAGAGCGGAGTCACCTAGTGCAG | 4410 fluorescence intensity (a.u.) |
| CTAATGACGAGATTAATTAGGCTTAATAAATTCGTCTCGCCGGAGTCACCTAGTGCAG | 54800 fluorescence intensity (a.u.) |
| CAATTAATGGACTCCAATTAACCTAACCATTTCTACACTGCGGAGTCACCTAGTGCAG | 26500 fluorescence intensity (a.u.) |
| CTCAATGAGTTCTTAATTAGTAATCAGATGGTCAATACACCGGAGTCACCTAGTGCAG | 11500 fluorescence intensity (a.u.) |
| CCGGGAATCAATTTACTTATGATAGGGACAATAAGATATTCGGAGTCACCTAGTGCAG | 11200 fluorescence intensity (a.u.) |
| TTAAATTAGCGTCCAAACATTCGATGTGACATGGACTAAGCGGAGTCACCTAGTGCAG | 18100 fluorescence intensity (a.u.) |
| CAATTTAAATGACAATTAATCTTTAGTATATATTCTTGTTCGGAGTCACCTAGTGCAG | 22700 fluorescence intensity (a.u.) |

| Sequence | binding signal |
| --- | --- |
| AGCCAATTTGATTGCTTGCAAAATTGTGCCAAATTTTCAGCGGAGTCACCTAGTGCAG | 40900 fluorescence intensity (a.u.) |
| CCCACATTGACTGACTGATCGACCAGGCTGTTTACCTTCGCGGAGTCACCTAGTGCAG | 30100 fluorescence intensity (a.u.) |
| CAAACAAATAAAATTGACGTCAAGAAAATAAAGTTATGGTCGGAGTCACCTAGTGCAG | 16800 fluorescence intensity (a.u.) |
| TATAATTTGGTGGGCGCACCACTAACGTGTATATTTAGTGCGGAGTCACCTAGTGCAG | 4700 fluorescence intensity (a.u.) |
| AATAAATTTGTCCCGCACTTTACAGGCGGATTACGTAATTCGGAGTCACCTAGTGCAG | 10500 fluorescence intensity (a.u.) |
| TATCAGTTATTTGATGAATCAGACTAACAAATCGTTAAGCCGGAGTCACCTAGTGCAG | 5220 fluorescence intensity (a.u.) |
| CGAATTTCTGATTAAGATTCTTTCCTGACATGCGGGCCCACGGAGTCACCTAGTGCAG | 3600 fluorescence intensity (a.u.) |
| TATTAATTTCTTTGTAACGCCTACAGTGTACTCTTCGCTTCGGAGTCACCTAGTGCAG | 14500 fluorescence intensity (a.u.) |
| TAATCATAAACTAATTAGACTCAAAAGATTCCTCTCGCGACGGAGTCACCTAGTGCAG | 16600 fluorescence intensity (a.u.) |
| AGTGCAAATTATATCTCATCATCTTAATTCATTCAAGATCCGGAGTCACCTAGTGCAG | 13400 fluorescence intensity (a.u.) |
| CGTATAATTGCAGGTTGGCTCTTAGTTTAAAATCGTTCGACGGAGTCACCTAGTGCAG | 12100 fluorescence intensity (a.u.) |
| GGAAAACGTGGTAAACTGGTGATTGAATCTAAAAGTAGCACGGAGTCACCTAGTGCAG | 18900 fluorescence intensity (a.u.) |
| GTTCTAATTTTAGAAAATTACAATGGCATTAACTCGATTTCGGAGTCACCTAGTGCAG | 22400 fluorescence intensity (a.u.) |
| TTGCAAAGGTAATTAATCAAGCACACACGCATTAAGGCATCGGAGTCACCTAGTGCAG | 4460 fluorescence intensity (a.u.) |
| ATACAAGATTGTTGTCGAATTAGTTAACGGTGTGGTTTTACGGAGTCACCTAGTGCAG | 3860 fluorescence intensity (a.u.) |
| GTGATTGGGCTTCAGCTCCACCAAGCGGCTGGCCCCATCTCGGAGTCACCTAGTGCAG | 7830 fluorescence intensity (a.u.) |
| ACTGATTTATATGGCTTCTTCATCTTTGTTGTAGTCCCGACGGAGTCACCTAGTGCAG | 41200 fluorescence intensity (a.u.) |
| CAACCATCAAGGCATCAATTAAACTAAACGAAGGTACACGCGGAGTCACCTAGTGCAG | 5960 fluorescence intensity (a.u.) |
| AAGTTATTAGCATATGATTAATCGAATATGAATTATTGTACGGAGTCACCTAGTGCAG | 3900 fluorescence intensity (a.u.) |
| TCAAGATTGCTAACTAGATGTCATGGCGTGCTGGAGATAACGGAGTCACCTAGTGCAG | 4250 fluorescence intensity (a.u.) |
| TTTTGAAATTTCAGATTATTTTGTGTGGTTTTGTAATTTGCGGAGTCACCTAGTGCAG | 4570 fluorescence intensity (a.u.) |
| GCTTATAGATTGTAATAATCCATCATAATAAACTATCTATCGGAGTCACCTAGTGCAG | 16300 fluorescence intensity (a.u.) |
| AATAAATAAATCACTTTACCTGGAGTAATGATGATATTTTCGGAGTCACCTAGTGCAG | 4430 fluorescence intensity (a.u.) |
| CTTTTAGATTTGACATTTACAATTTTACCACTGATATACGCGGAGTCACCTAGTGCAG | 23500 fluorescence intensity (a.u.) |
| CTTTGTAATTTTATTGGCATCCATTCAGTTGATAAAGACCCGGAGTCACCTAGTGCAG | 3620 fluorescence intensity (a.u.) |
| CCAAATTACACGGTTTTGTATAGTTTAGGGCCGAAGGTTTCGGAGTCACCTAGTGCAG | 4330 fluorescence intensity (a.u.) |
| GTTTAAAGGGGATTGAAGAGGATTGGCGTGGAATAAATCCCGGAGTCACCTAGTGCAG | 11300 fluorescence intensity (a.u.) |
